Whole data set: some 33,000 sequences, median “E-score (-0.5 to 0.5)” near -0.032, cut for the highest 2% near 0.36. The list shows a part of the results.
biological target: T1, Sko1 (UniProt Q02100); test: PBM E-score (8-mer binding enrichment) (E-score (-0.5 to 0.5)); higher = stronger / more preferred TF binding; most listed sequences are background and not binding sites; settings: protein concentration: 200 nM; construct: GST-full length
T1 sequence: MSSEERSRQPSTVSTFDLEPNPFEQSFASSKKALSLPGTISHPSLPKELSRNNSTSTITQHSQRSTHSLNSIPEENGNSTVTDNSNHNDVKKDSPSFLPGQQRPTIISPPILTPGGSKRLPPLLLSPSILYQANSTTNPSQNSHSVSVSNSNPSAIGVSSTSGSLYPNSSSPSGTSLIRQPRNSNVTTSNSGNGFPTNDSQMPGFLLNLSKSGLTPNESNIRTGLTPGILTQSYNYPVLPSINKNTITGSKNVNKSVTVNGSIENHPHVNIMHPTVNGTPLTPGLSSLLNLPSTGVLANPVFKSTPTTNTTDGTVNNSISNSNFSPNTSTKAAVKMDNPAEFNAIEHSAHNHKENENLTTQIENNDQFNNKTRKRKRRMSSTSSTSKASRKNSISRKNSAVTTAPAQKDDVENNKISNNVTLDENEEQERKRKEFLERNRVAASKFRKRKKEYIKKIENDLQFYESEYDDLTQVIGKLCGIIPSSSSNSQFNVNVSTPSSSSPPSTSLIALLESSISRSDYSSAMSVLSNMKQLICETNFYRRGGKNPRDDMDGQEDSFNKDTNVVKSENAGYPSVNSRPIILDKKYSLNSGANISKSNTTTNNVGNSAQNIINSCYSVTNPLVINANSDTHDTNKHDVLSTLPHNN
Outline: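 GST-tagged yeast TFs (full-length or DNA-binding domain) were made by PURExpress in vitro transcription/translation and applied at about 100-200 nM to universal all-10-mer Agilent arrays. The arrays were made double-stranded by primer extension, on fresh or once-stripped slides. Bound protein was detected with fluorescent anti-GST, and scans were normalised with masliner. Each ungapped eight-base word, pooled with its reverse complement, received an E-score (modified Wilcoxon-Mann-Whitney statistic) from the Universal PBM Analysis Suite.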

| Sequence | PBM E-score |
| --- | --- |
| AGTCTCAA | -0.215 |
| ACTACCTG | -0.0996 |
| GTACACAC | 0.162 |
| ACAAGGCA | -0.175 |
| CAGCCACG | -0.0713 |
| AAACTCTT | -0.0949 |
| GACAAGGA | -0.0908 |
| CTAGTGCC | -0.209 |
| GTGGCGGA | -0.139 |
| CCTTGGAA | -0.122 |
| AGGATACA | -0.0989 |
| AATCCGTC | 0.116 |
| CGAAGAAG | 0.0371 |
| ACCCAAGC | -0.247 |
| GAACGGGA | -0.211 |
| AGGGATTA | 0.00053 |
| AGAAATCC | -0.0324 |
| CCTGAGCA | -0.096 |
| ACTACCAC | 0.0163 |
| ACCGTCGA | -0.124 |
| ATTGAGAA | 0.166 |
| GGCGTAAA | 0.158 |
| ACCTGTCG | -0.00568 |
| CGTCGAAG | 0.0974 |
| AGTGGTAA | 0.0561 |

| Sequence | PBM E-score |
| --- | --- |
| CGTCCATC | 0.113 |
| CGAAGATC | -0.0361 |
| TGACTAAA | 0.0792 |
| CTTGATGA | 0.138 |
| CTAAATAC | 0.14 |
| TGGGCCCA | -0.0381 |
| TAACCAAA | 0.0594 |
| AAAAGGCT | -0.224 |
| ACTAGGTA | 0.0844 |
| CCGACATA | -0.00198 |
| ACATTGCT | 0.0634 |
| CGGTCCTA | -0.256 |
| TGGGGAAA | -0.0215 |
| CTTGTTGA | 0.1 |
| AATTCTAA | 0.163 |
| AAACATCG | -0.0467 |
| CAGCATAA | -0.0433 |
| GGATTCAA | -0.133 |
| CATAAAAA | 0.229 |
| CCTAAATC | 0.0332 |
| GACGAGGC | -0.0768 |
| TAGCCACA | 0.0515 |
| TCTTCCAA | -0.0465 |
| AACACCTT | 0.0845 |
| AGTAGACT | -0.00102 |

| Sequence | PBM E-score |
| --- | --- |
| GACGTTCC | 0.285 |
| GAATACTA | 0.198 |
| ATAGGTTA | 0.104 |
| AATCCGTG | -0.203 |
| CAGGAGAA | -0.212 |
| CGTGCGGA | 0.0597 |
| CTAGGTTC | -0.143 |
| GGTACACA | -0.251 |
| CACAGATG | 0.0965 |
| ACACCGCG | -0.0539 |
| CCTGTGAG | -0.156 |
| CCTTATCA | 0.104 |
| GAACCGGC | -0.264 |
| ACCCAGAC | -0.0956 |
| ACATTCTC | -0.0004 |
| GCCCATCC | -0.26 |
| AATCGGCT | -0.0254 |
| CAAAGTTC | -0.178 |
| CTTATTAA | 0.114 |
| CAGGGCAG | -0.211 |
| AGTATTCG | 0.0215 |
| CATTGTGC | 0.152 |
| CGGCGGCC | -0.193 |
| TACTAACA | 0.0792 |
| CAGGAATC | -0.156 |

| Sequence | PBM E-score |
| --- | --- |
| TATAATGA | 0.233 |
| CGTATCCC | 0.147 |
| AGAACCAG | -0.306 |
| ATTAAGTG | 0.0343 |
| GGTTCAAA | 0.045 |
| CGCACCAG | 0.0427 |
| GCGCCACC | -0.291 |
| GCGCGGGA | -0.0474 |
| ATTTCATC | 0.235 |
| GCGTTACA | -0.0233 |
| GCAGCAGA | -0.135 |
| ATCTGTGG | -0.229 |
| AGTACTTC | -0.0236 |
| GCCCTGTA | -0.128 |
| ATAATCCG | -0.0668 |
| GTTTTCTA | 0.201 |
| ATTCCGGA | -0.0675 |
| GCAAAAAA | 0.179 |
| GAAAAAGA | -0.0197 |
| CCTTGGCC | -0.341 |
| CAACGCTC | 0.0406 |
| CAGAGGAG | -0.114 |
| AGTCGTAG | 0.145 |
| GCGTTTCC | 0.17 |
| GCATATTA | 0.247 |

| Sequence | PBM E-score |
| --- | --- |
| AGCGTGAT | 0.147 |
| GTACGTCA | 0.491 |
| CTACCTTA | -0.068 |
| TACAGGAA | 0.0226 |
| GAGTTCTA | -0.167 |
| ATGATTCG | 0.0899 |
| ATTGGCCG | -0.155 |
| CCTTTCAC | 0.104 |
| CAGACGCC | -0.188 |
| ATTTGCAG | 0.0228 |
| GCGTTCCA | -0.0133 |
| AGGCGAAG | -0.28 |
| CCGCCCAA | -0.181 |
| GGCACAAC | -0.171 |
| TGTTCCAA | 0.0622 |
| CAAAGGTA | -0.023 |
| CCTCACAC | 0.0338 |
| ACTACTGC | -0.0692 |
| GTTCCTAA | -0.0469 |
| GCATGAGA | -0.0685 |
| CCAACTCA | -0.0644 |
| ACATTGAC | 0.175 |
| CGAGCTCC | -0.0181 |
| AGGGGTGA | -0.249 |
| CAAACGGG | -0.148 |

| Sequence | PBM E-score |
| --- | --- |
| CTCGCTGA | -0.0791 |
| GAACCGTA | -0.273 |
| CCGCAGCG | -0.266 |
| GCGTAAAC | 0.281 |
| ACTATCGA | -0.0539 |
| ACTTTGGC | -0.204 |
| ATAAAACG | 0.23 |
| AGGTTCGG | -0.268 |
| GATATGGA | 0.17 |
| ATACATTA | 0.217 |
| AGGCGACA | -0.35 |
| ATCCGTGG | -0.269 |
| AATCCGAA | 0.095 |
| GCATTTCA | -0.0873 |
| CAGGGAAA | -0.154 |
| AAGCTGGC | -0.0611 |
| AGACCGGC | -0.191 |
| AATGTCCC | -0.261 |
| GTACCCAA | -0.0825 |
| CACATCTA | 0.204 |
| CAGAACCC | -0.215 |
| CTGCCCTC | -0.262 |
| GACTAGTC | -0.117 |
| AGTATACC | -0.0102 |
| GCGACCAC | -0.00397 |

| Sequence | PBM E-score |
| --- | --- |
| AGAACCGA | -0.0964 |
| CAGGTGCG | -0.0175 |
| AGTCGTGC | -0.17 |
| AGGTCCCC | -0.272 |
| ATGTTAGC | 0.173 |
| AGTTGCAC | -0.0625 |
| ACTCAATC | 0.0835 |
| TAGTTAGA | 0.0533 |
| ACGTTCGC | 0.221 |
| AGAACGGC | -0.152 |
| CCATGAAC | -0.203 |
| TATGGACA | 0.0569 |
| AATCAACG | 0.115 |
| ACTGGCTC | -0.212 |
| CAAAAATA | 0.184 |
| GGTTGTAC | -0.158 |
| ATGAACGC | 0.145 |
| GTCGAAAC | -0.00733 |
| GCCACGCC | -0.109 |
| ATAGCGTC | 0.215 |
| CTACAGGC | -0.239 |
| CACTTCGA | 0.0708 |
| ACATGTTG | 0.122 |
| CCAAATCC | -0.208 |
| GCGAGGGA | -0.289 |

| Sequence | PBM E-score |
| --- | --- |
| ACATTTCC | -0.00076 |
| GATTCAGC | -0.0762 |
| TCCTATAA | 0.0318 |
| GAAGACAA | 0.082 |
| TGAAGAAA | 0.0769 |
| CAATAATG | 0.164 |
| GCCTAGAA | -0.121 |
| CTATCCGA | -0.0706 |
| CCACATCC | -0.129 |
| CAGACTGG | -0.201 |
| CTAGTCAA | -0.0871 |
| GGGTAGAC | -0.243 |
| CGGCCAAG | -0.324 |
| ACCATGAT | 0.172 |
| TTGGCAAA | 0.121 |
| TAATGGCA | 0.099 |
| CTCTTGCA | -0.169 |
| ATCTCACC | -0.0481 |
| ACATCCTC | -0.17 |
| ACCTTGAC | -0.058 |
| CGCTCGCC | -0.179 |
| CTCCGCGA | -0.199 |
| AGTCTCCA | -0.0977 |
| GGTGTGTA | -0.107 |
| GCTCAAGA | -0.215 |

| Sequence | PBM E-score |
| --- | --- |
| CTGTATTC | -0.0125 |
| CCATTGCC | -0.183 |
| CCGATGAG | -0.155 |
| CCGAATCC | -0.231 |
| ACGCTAAT | 0.0454 |
| CAGGACGG | -0.216 |
| ATCTCAAT | 0.206 |
| ACAGTGCT | -0.0575 |
| AGTCACTG | 0.00358 |
| GGCTGGAC | -0.241 |
| CTCCTTAA | -0.265 |
| ATTTAAAC | 0.221 |
| ACGAACTC | 0.217 |
| ATATGTCG | 0.184 |
| AATATACA | 0.228 |
| CGTGTTCA | 0.203 |
| GGTGGTGA | 0.0184 |
| TAACCTTA | -0.156 |
| AAGGCTCT | -0.308 |

— the supplement of paper PMC3334620
